Source: the supplement of paper PMC10338343
± gives the standard deviation. Whole data set: some 6,600 sequences, median “pre-steady-state target cleavage rate” near 0.07, cut for the highest 2% near 0.72. The entries are a selection whose mix differs from that of the whole data set.

test system: MIWI (PIWIL1) piRISC loaded with Kctd7 piRNA (30 nt); test: pre-steady-state target cleavage rate (min^-1); MIWI and MILI are mouse PIWI proteins and EfPiwi is from a freshwater sponge; tags in brackets are library labels; higher = faster piRNA-guided slicing of the target; conditions: guide: Kctd7 piRNA 5'p-UGUUAAUCUCUCAGAGAAGGUGACAGUGAU; auxiliary factor: 500 nM mouse GTSF1
In short: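 The pre-steady-state cleavage rate came from a burst-and-steady-state fit to pooled data from three Cleave-'n-Seq trials, in which uncleaved targets were sequenced and normalised to depth and to weakly complementary targets. Each reaction held 0.1 nM transcribed, DNA-blocked target RNA library and 1 nM active affinity-purified piRISC carrying one synthetic guide, with or without 500 nM GTSF1 partner protein, in HEPES–potassium acetate buffer at 33 °C for 0–8 or 0–960 min. k3 was capped at 0.0001 min^-1.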

Sequence	pre-steady-state target cleavage rate
UAGUCUGUCAGCUUCUGUGAGAGAUUAACA	0.392 ± 0.02
UUCACUGUCACCUACACUGAGAGAUUAACA	0.377 ± 0.021
UAGUGAGUCACCUUCUCUAGAGAUUAACA	0.177 ± 0.017
UAGUGACAGUCCUUCUCUGAGAGAUUAGCA	0.0335 ± 0.0075
AUCACUGUCACCUUCUCUGAGAGAUAAUCA	0.128 ± 0.021
AUCACUGUCACCUUCUCUGAGAGUAUAUGA	0.0293 ± 0.011
UAGUGACACACCUUCUCUGAGAGUUUAACA	0.197 ± 0.038
UAGUGACAGUCCUUCUAUGAGAGAUUAACA	0.0126 ± 0.0053
UAGUCUGUCAGCUACUCUGAGAGAUUAACA	0.485 ± 0.029
UAGUGAGUCACCAUCUCUGAGAGAUAAACA	0.327 ± 0.039
UAGUGAGUCACCUUCUAUGAGAGAUUAACA	0.22 ± 0.018
UAGUGACAGUGCUUCUCUGAGAGAUAACA	< 0.0001
UUCACUGUGACCUUCUCUGAGAGAUAAACA	0.214 ± 0.023
AUCACUGUCACCUUCUUCUGAGAGAUUAACA	0.212 ± 0.046
AUCACUGUCACCUACUCAGAGAGAUUAACA	0.152 ± 0.015
UAGUGACUCACCUUCUCUGAGGGAUUAACA	0.486 ± 0.031
AUCACUGUCACCUUCUCUCUGAGAUUUUGA	0.0121 ± 0.0059
UAGUCACACACCUUCUCUGAGAGAUUAAGA	0.188 ± 0.034
UACAGUGUCACCUUCUCUGAGAGAUUAAGA	0.128 ± 0.025
AUCACUGUCUCCUUGUCUGAGAGAUUAACA	0.412 ± 0.061
UAGUGACAGUCCUUCUCUGAGGGAUUAACA	0.0348 ± 0.0076
UAGUGAGUCACCUUCUCUGAGAGUAUUUGA	0.104 ± 0.029
UAGUGUGUCACCUUCUCUGUGACAUUAACA	0.0104 ± 0.0036

Sequence	pre-steady-state target cleavage rate
UAGUGACAGUGGAAGUCAGAGAGUUUAACA	< 0.0001
AUCACUCUCACCUUCUCUGAGAGAUAUUGA	0.0172 ± 0.0076
UAGACUGUCACCUUCUCUGAGCGAUUAACA	0.0506 ± 0.007
UAGUGACACACCUUCUCUGAAAGAUUAACA	0.384 ± 0.029
UAGUGACUCUCGUUCUCUGAGAGAUUAACA	0.00773 ± 0.0047
AUCACUGUCACCUUCUCUGUCAGAUUAUGA	0.0125 ± 0.007
AUCACUGUCACCUACUCUGAGAGAAUAACA	0.41 ± 0.064
UAGUCUGUCACCUUCACUGAGUGAUUAACA	0.0279 ± 0.0062
UAGUGAGACUCCUUCUCUGAGAGAUUAACA	0.243 ± 0.021
UAGUGACACACCUUCUCUGAGAGAUUAUGA	0.053 ± 0.011
UAGUGACUCACCUUCUCUGAGAGAUCAACA	0.338 ± 0.052
UAGUGUGUCACCUUCUCUGAGAGAGUUAACA	0.433 ± 0.061
AUCACUGUCACCUUCUCUGACAGAUAAACA	0.0189 ± 0.0056
UUCACUGUCACCUUGACUGAGAGAUUAACA	0.167 ± 0.021
UUCACAGUCACCUUCUCAGAGAGAUUAACA	0.51 ± 0.031
UAGUGUGUCACCUUCUCUGAGACAUAAACA	0.0331 ± 0.0077
UUCACUGUCACCUUCUCUGAGAGAUCAACA	0.233 ± 0.037
UAGUCUGACACCUUCUGUGAGAGAUUAACA	0.409 ± 0.021
UUCACUGUCAGGUUCUCUGAGAGAUUAACA	0.603 ± 0.041
UUCACUGUCUGCUUCUCUGAGAGAUAUUGA	0.00381 ± 0.0035
UAGUCUCUCACCUUCUCUGAGACAUUAACA	0.239 ± 0.02
UUCACUGUGACCUUCUCUGAGAGAAUAACA	0.176 ± 0.029
UAGUGACUCACCUUCUCUGAGAGAUAUUGA	0.0155 ± 0.0056

Sequence	pre-steady-state target cleavage rate
UAGACUGUCAGCUUCUCUGAGUGAUUAACA	0.0107 ± 0.0021
AUCACUCUCACGUUCUCUGAGAGAUUAACA	0.46 ± 0.023
UAGUGUGAGACCUUCUCUGAGAGAUUAACA	0.251 ± 0.016
UAGUGUGUCUACCUUCUCUGAGAGAUUAACA	0.105 ± 0.013
UAGUGAGUCAACCUUCUCUGAGAGAUUAACA	0.172 ± 0.018
UAGUGUGUCACCUUCUGUGACAGAUUAACA	0.182 ± 0.051
UACACUGUCUCCUUCUCUGAGAGAUUUACA	0.261 ± 0.036
AUCACUGUGUGCUUCUCUGAGAGAUUAACA	0.0639 ± 0.011
UUCACAGUCACCUUCUCUGAGAGAUUUUGA	0.115 ± 0.027
AUGACUGUCACCUUCUCUGAGACAUUAACA	0.0568 ± 0.01
UACACUGUCACGAACUCUGAGAGAUUAACA	0.131 ± 0.019
UAGUGACAGACCUCCUCUGAGAGAUUAACA	0.326 ± 0.028
AUCACUGUCACGUUCUGUGAGAGAUUAACA	0.518 ± 0.026
UACACUGUCACCUUCUCUGACAGUUUAACA	0.0129 ± 0.0048
UAGUGUGUCACCUUCUCUGACUCAUUUUGA	0.0047 ± 0.0045
UACACAGACACCUUCUCUGAGAGAUUAACA	0.43 ± 0.028
UAGUGUGUCAGGUUCUCUGAGAGAUUAAGA	0.0319 ± 0.0051
UAGUGAGUCACCUUCUCUGAGACAUUAUGA	0.00655 ± 0.0036
UAGAGUGUCACCUUCUCUGAGACAUUAACA	0.196 ± 0.02
UAGUGACAGACCUUCUCUGAGAGAUUCAACA	0.103 ± 0.026
UACACUGUCAGCUUCACUGAGAGAUUAACA	0.454 ± 0.027
UUCACUGUCACCUACUCUGUGAGAUUAACA	0.177 ± 0.013
UACACACUCACCUUCUCUGAGAGAUUAUGA	0.0563 ± 0.017

Sequence	pre-steady-state target cleavage rate
UUCACUCUCACCUUCUCUGAGAGAUAAACA	0.137 ± 0.021
UACACUGUCACCUUCUCUGAGAGAUCUAACA	0.415 ± 0.073
UAGUGUGUCACCUACUCAGAGAGAUUAACA	0.122 ± 0.0095
AUCACUGUCACCUACUCUGAGAGAUUAAGA	0.228 ± 0.037
UAGUGACAGUCCUUCUCUGUGAGUUUAACA	0.00604 ± 0.002
UAGUGUGUCACCUUCUCUGAGAGAAAUUGA [g7:g25:cont:t1A]	0.0437 ± 0.017
UAGUGUGUCACCAUCUCUGAGAGAAUAACA	0.213 ± 0.039
UACACUGAGACCUUCUCUGAGAGAUUAACA	0.572 ± 0.034
UAGUCUGUCACCUUCUCUGAGAGAUUCAACA	0.432 ± 0.07
UAGAGUGUCUCCUUCUCUGAGAGAUUAACA	0.667 ± 0.035
UAGUGACACACCUUCUCAGAGACAUUAACA	0.0297 ± 0.0067
UACACUGUCACCUACUCUGACAGAUUAACA	0.219 ± 0.021
UAGUGACUCACCUACUCUGAGAGAUUAUGA	0.00463 ± 0.003
UAGUGACAGUGCUUCUCUGAGAGAUUUACA	0.00717 ± 0.002
UAGUGAGUCACCUGCUCUGAGAGAUUAACA	0.525 ± 0.025
UAGUGACACACCUUCUCUGACAGAUUAAGA	0.00356 ± 0.003
UACACUGUCACCGUCUCUGAGAGAUUAACA	0.513 ± 0.039
UACACUGUCACCUUCUCUGAGAGAUUAAA	0.235 ± 0.036
UAGUGUGAGACCUUCUCUGAGAGAUUAUGA	0.0142 ± 0.0052
UAGUCUGUCACCAUCUCUCAGAGAUUAACA	0.0544 ± 0.0077
AUCACUGUCACCUUCACUGACAGAUUAACA	0.295 ± 0.036
UAGACUGUCACCUUGUCUGAGAGAUUAUGA	0.22 ± 0.046
UUCACUGUCACCUUAUCUGAGAGAUUAACA	0.573 ± 0.024
